Results from the antibiotic and cytotoxicity screens of Wong et al. (2023).
This is one part of the list.

These compounds were tested on HSkMC (human skeletal muscle cells) (assay: cytotoxicity call (relative viability < 0.9)). Conditions: 10 µM.

Structure (SMILES) | cytotoxicity call
C[C@H](CO)N1C[C@H](C)[C@@H](CN(C)C(=O)Nc2cccc(F)c2)Oc2ncc(Br)cc2C1=O | inactive
C[C@@H]1CN([C@H](C)CO)C(=O)c2cc(NC(=O)c3ccncc3)ccc2O[C@@H](C)CCCCO[C@H]1CN(C)C(=O)Nc1ccccc1 | inactive
C[C@@H]1CN([C@@H](C)CO)S(=O)(=O)c2ccc(C#CC3CCCC3)cc2O[C@@H]1CN(C)C(=O)Cc1ccncc1 | inactive
C[C@@H]1CCCCO[C@@H](CN(C)C(=O)Nc2ccc(C(F)(F)F)cc2)[C@H](C)CN([C@@H](C)CO)C(=O)c2cc(N(C)C)ccc2O1 | inactive
CC(C)NC(=O)N(C)C[C@H]1OCCCC[C@H](C)Oc2ccc(NC(=O)C3CCCCC3)cc2C(=O)N([C@@H](C)CO)C[C@H]1C | inactive
C[C@H]1CCCCO[C@H](CN(C)Cc2ccncc2)[C@@H](C)CN([C@@H](C)CO)C(=O)c2cc(NC(=O)C3CCCCC3)ccc2O1 | inactive
C[C@H]1CCCCO[C@@H](CN(C)Cc2ccccc2)[C@@H](C)CN([C@@H](C)CO)C(=O)c2cc(NC(=O)Nc3ccccc3)ccc2O1 | inactive
CCS(=O)(=O)N1CC[C@]2(CC1)CN([C@H](CO)c1c2c2ccc(cc2n1C)OC)C(=O)CN1CCOCC1 | inactive
Cc1noc(C)c1NC(=O)N(C)C[C@@H]1Oc2ccc(NS(=O)(=O)c3cn(C)cn3)cc2CC(=O)N([C@@H](C)CO)C[C@H]1C | inactive
C[C@@H]1CN([C@@H](C)CO)C(=O)c2cc(NS(=O)(=O)c3cn(C)cn3)ccc2O[C@@H]1CN(C)C(=O)Nc1ccc(F)cc1 | inactive
COc1ccc(NC(=O)Nc2cccc3c2O[C@H](CN(C)Cc2ccc(C(=O)Nc4ccccc4N)cc2)[C@H](C)CN([C@H](C)CO)C3=O)cc1 | inactive
Cc1noc(C)c1S(=O)(=O)Nc1ccc2c(c1)C(=O)N([C@H](C)CO)C[C@H](C)[C@@H](CN(C)C(=O)Nc1ccc(C(F)(F)F)cc1)OCCCC[C@H](C)O2 | inactive
CC1=C(CCC(=O)O)c2cc3[nH]c(cc4nc(cc5[nH]c(cc1n2)c(C)c5C(C)O)C(C)=C4C(C)O)c(C)c3CCC(=O)O (stereo not given) | inactive
C[C@H]1CCCCO[C@H](CN(C)C(=O)C2CCCCC2)[C@@H](C)CN([C@@H](C)CO)C(=O)c2cc(NS(=O)(=O)c3ccc(Cl)cc3)ccc2O1 | active
CN(C)c1ncnc2c1ncn2[C@H]1O[C@@H](CO)[C@@H](N)[C@@H]1O | inactive
Cc1ccc(S(=O)(=O)N2C[C@H](O)COC[C@@H]3O[C@@H](CC(=O)NCc4ccc(Cl)c(Cl)c4)CC[C@H]32)cc1 | inactive
COc1ccc(S(=O)(=O)Nc2ccc3c(c2)C(=O)N([C@H](C)CO)C[C@H](C)[C@H](CN(C)S(=O)(=O)c2ccc(Cl)cc2)OCCCC[C@@H](C)O3)cc1 | inactive
NCc1ccncc1 | inactive
COCC(=O)Nc1ccc2c(c1)C(=O)N(C)[C@@H]1CC[C@@H](CC(=O)NCc3ccccc3Cl)O[C@@H]1CO2 | inactive
COc1ccc(S(=O)(=O)N2C[C@@H](O)COC[C@@H]3O[C@@H](CC(=O)NCCCN4CCOCC4)CC[C@H]32)cc1 | inactive

Structure (SMILES) | cytotoxicity call
CC1(C)O[C@@]2(C)CC[C@@H]1C[C@@H]2O[C@H]1O[C@@H](CO)[C@@H](O)[C@@H](O)[C@@H]1O | inactive
CC12C=CC(=O)C=C1CCC1C3CC(O)C(O)(C(=O)CO)C3(C)CC(O)C12F (stereo not given) | inactive
Cl.Cl.NCCSSCCN | inactive
CNC[C@H]1OCCCC[C@H](C)Oc2ccc(NS(=O)(=O)c3cn(C)cn3)cc2C(=O)N([C@@H](C)CO)C[C@@H]1C | inactive
CCC1CCC(N)CC1 (stereo not given) | inactive
C[C@H]1CN([C@@H](C)CO)C(=O)Cc2cc(NS(=O)(=O)c3ccccc3)ccc2O[C@@H]1CN(C)Cc1ccncc1 | inactive
COc1ccc(NC(=O)N(C)C[C@H]2OCCCC[C@H](C)Oc3ccc(NC(=O)c4ccncc4)cc3C(=O)N([C@H](C)CO)C[C@@H]2C)cc1 | inactive
Cc1ccc(S(=O)(=O)N(C)C[C@@H]2Oc3ccc(NS(=O)(=O)c4c(C)noc4C)cc3CC(=O)N([C@@H](C)CO)C[C@H]2C)cc1 | inactive
C[C@H](CO)N1C[C@H](C)[C@@H](CN(C)S(=O)(=O)c2cccs2)Oc2ccc(NS(C)(=O)=O)cc2C1=O | inactive
NC(=O)c1nc2c(s1)CCNCC2 | inactive
COc1ccc2c3c([nH]c2c1)[C@H](CO)N(C[C@]13CCN(CC1)CC1CCCC1)C(=O)CN1CCOCC1 | inactive
C[C@@H]1CCCCO[C@@H](CN(C)C(=O)Nc2ccc(C(F)(F)F)cc2)[C@@H](C)CN([C@H](C)CO)C(=O)c2cc(NC(=O)Nc3ccc(C(F)(F)F)cc3)ccc2O1 | inactive
COc1ccc(CN(C)C[C@@H]2OCCCC[C@H](C)Oc3ccc(NS(=O)(=O)c4ccc(C)cc4)cc3C(=O)N([C@H](C)CO)C[C@@H]2C)cc1 | inactive
C[C@@]1(O)CCOC(=O)C1 | inactive
C[C@@H]1CN([C@H](C)CO)C(=O)c2cccc(NC(=O)Nc3ccc(F)cc3)c2O[C@H]1CN(C)S(=O)(=O)c1cn(C)cn1 | inactive
C[C@H](C(=O)O)N1C(=O)c2ccccc2C1=O | inactive
COCC(=O)Nc1ccc2c(c1)OC[C@H](C)N(C(=O)c1ccccc1F)C[C@@H](C)[C@H](OC)CN(C)C2=O | inactive
C[C@@H]1CN([C@H](C)CO)C(=O)c2cc(NS(=O)(=O)c3ccccc3)ccc2O[C@@H](C)CCCCO[C@H]1CN(C)C(=O)c1ccccc1 | inactive
C[C@H](CO)N1C[C@H](C)[C@H](CN(C)C(=O)Nc2ccc3c(c2)OCO3)OCCCC[C@H](C)Oc2ccc(NC(=O)c3ccncc3)cc2C1=O | inactive
C[C@@H]1CN([C@H](C)CO)C(=O)c2cc(NC(=O)Nc3ccc(C(F)(F)F)cc3)ccc2O[C@H]1CN(C)Cc1ccccc1 | active
